Test results as given in PubChem BioAssay AID504466 (National Center for Advancing Translational Sciences (NCATS), 2011).
Out of some 330,000 compounds screened, about 4,200 (1.3%) were called active. The shares of active, inactive and inconclusive entries below differ from those in the screen. Calls follow the shape of the dose curve; as a rule, active = well fitted activation curve with a large enough effect; inconclusive = small, poorly fitted or top-dose-only effect; inactive = no such curve, though single readings can be large or run the other way. Potencies beside an inconclusive call are fits to weak or partial responses and may not hold up.

Test: qHTS screen for small molecules that induce genotoxicity in human embryonic kidney (HEK293T) cells expressing luciferase-tagged ELG1; also: nearly all actives have a fitted effect of over 60% in size; as to activity change, positive = activation: % of control where 0% means no effect
Conditions: HEK293T ELG1-luciferase reporter, luminescence, 16 h; series mostly up to 46 µM; activity change, positive = activation: at the top concentration
Outline: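 Genotoxicity was scored as increased ELG1-luciferase reporter signal, measured by ONE-Glo luminescence (30 min, room temperature). Compound or vehicle exposure of the HEK293T reporter cells lasted 16 hr at 37°C.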
Potency is read from the fitted curve at half-maximal effect; tags tell the direction and shape of the fitted curve.

Structure (SMILES) | activity change, positive = activation | Potency
Cc1cccc(NC(=O)COC(=O)c2ccccc2SCC(=O)N2CCCC2)c1 | inactive: -4.51% | –
CCOC(=O)C1CCCN(c2ncnc3c2cnn3-c2cccc(C)c2)C1 (stereo not drawn) | – | inconclusive: 25.9 µM [activator, single point]
O=C(Cc1n[nH]c(=O)c2ccccc12)OCC(=O)c1ccc2c(c1)OCCO2 | – | inconclusive: 32.6 µM [activator, partial curve, poor fit]
O=C(Nc1ccncc1)C1CC1c1ccccc1 (stereo not drawn) | inactive: -1.06% | –
O=C(NCCc1ccccc1)c1cccc(Br)c1 | – | inconclusive: 5.8 µM [activator, partial curve, poor fit]
C[N+](C)(C)C[C@H](O)CC(=O)[O-] | – | inconclusive: 20.6 µM [activator, partial curve]
O=C(NCc1csc(-c2cccs2)n1)C1CCC1 | – | inconclusive: 14.6 µM [activator, partial curve]
O=C(Cc1ccccc1)Nc1ccc2c(c1)OC1(CCCC1)O2 | – | inconclusive: 11.6 µM [activator, partial curve]
CCCCCC(=O)Nc1ccc(C(=O)COC(=O)CN2C(=O)NC3(CCCC3)C2=O)cc1 | – | inconclusive: 20.6 µM [activator, partial curve, poor fit]
Cc1ccc(S(=O)(=O)N2CCN(C(=O)COC(=O)COc3cccc(C(F)(F)F)c3)CC2)c(C)c1 | inactive: -0.0714% | –
CCOC(=O)N1CCN(C(=O)C2CCC(=O)N(Cc3ccc(Cl)cc3)C2)CC1 (stereo not drawn) | inactive: 0.416% | –
Cc1c(Cl)ccc2c(C(=O)NCCN3CCCCC3)cc(-c3ccccn3)nc12 | – | inconclusive: 23.1 µM [activator, single point]
CCCCN(C(=O)C1CCCC1)c1c(N)n(CCC)c(=O)[nH]c1=O | inactive: 0.887% | –
O=C(CCNc1ccccc1)c1ccc2c(c1)OCO2 | – | inconclusive: 5.8 µM [activator, partial curve]
O=S(=O)(NC1c2cccc3cccc(c23)C1N1CCN(CCO)CC1)c1ccccc1 (stereo not drawn) | – | inconclusive: 25.9 µM [activator, partial curve, poor fit]
COc1ccc(N2CCN(S(=O)(=O)c3cc4c5c(c3)C(C)C(=O)N5CCC4)CC2)cc1 (stereo not drawn) | – | inconclusive: 29.1 µM [activator, partial curve, poor fit]
Cc1ccc(/C=C/C(=O)Nc2nc3ccccc3[nH]2)cc1 | – | active: 10.3 µM
CN1CCN(C(=O)C2=C[C@@H](c3coc4ccccc4c3=O)C[C@@H](OCc3ccc(CO)cc3)O2)CC1 | inactive: -4.66% | –
Cc1ccc(Cn2ccc(NC(=O)c3cc(-c4ccc(F)cc4)on3)n2)cc1 | inactive: 8.07% | –
COc1cc(OC)c(C(=O)OCC(=O)NCC2CCCCC2)cc1OC | inactive: 2.45% | –
COc1cccc(/C=N\NC(=O)c2ccc(Cn3cc(Br)c([N+](=O)[O-])n3)o2)c1O | inactive: 11.7% | –
CCOC(=O)CSc1n[nH]c(NC(C)=O)n1 | inactive: 1.78% | –
Cc1ccc(C(=O)COC(=O)c2ccc3c(c2)C(=O)N(c2cccc4ncccc24)C3=O)cc1C | inactive: 0.838% | –
COc1cccc(Nc2nc(-c3cccnc3)cs2)c1 | – | inconclusive: 4.11 µM [activator, full curve]
COC(=O)[C@H](CC(C)C)NC(=O)Cn1cnc(C(=O)Nc2ccc(C)c(C)c2)n1 | – | inconclusive: 18.3 µM [activator, partial curve, poor fit]

Structure (SMILES) | activity change, positive = activation | Potency
CC(C)N(C(=O)N1CCC(c2nc(-c3ccncc3)no2)CC1)C(C)C | – | inconclusive: 25.9 µM [activator, single point]
CCN(c1ccccc1)S(=O)(=O)c1ccc(OC)c(NC(=O)CN(C)C)c1 | inactive: -6.12% | –
O=C(Nc1ccc(Br)cc1)C1CCN(c2cnccn2)CC1 | inactive: -5.67% | –
COc1ccccc1/C=C1\SC(N2CCC(C)CC2)=NC1=O | – | inconclusive: 16.4 µM [activator, partial curve, poor fit]
Cc1cc(N/N=C/c2ccccc2F)c2ccccc2n1 | – | inconclusive: 6.51 µM [activator, full curve, poor fit]
COCC(=O)Nc1cc(C(=O)Nc2cccc(C)c2C)ccc1Cl | – | inconclusive: 16.4 µM [activator, partial curve, poor fit]
COc1ccc(NC(=S)c2ccc(N(C)C)cc2)cc1 | – | inconclusive: 8.2 µM [activator, partial curve]
CCC(=O)N(CCC1(c2ccccc2OC)CCOC(C(C)C)C1)Cc1ccco1 (stereo not drawn) | inactive: -8.65% | –
COCCc1nc2ccc(C(=O)N(C)Cc3cccc(-n4cccn4)c3)cc2o1 | – | inconclusive: 6.51 µM [activator, full curve, poor fit]
CCCc1ccc2oc(C(=O)N3CCN(CCC(N)=O)CC3)c(C)c2c1 | inactive: 6.12% | –
O=C(c1cc(-c2ccccc2)on1)N1CCN(c2ccccc2)CC1 | inactive: -4.78% | –
CCOC(=O)[C@H]1[C@H]2COc3ccc(Cl)cc3[C@@H]2N2C(=O)CN(Cc3ccco3)C(=O)[C@@]12C | inactive: 1.09% | –
COC(=O)COc1ccc2oc(=O)cc(-c3cc4ccccc4o3)c2c1 | inactive: 9.8% | –
CC(=O)c1ccc(Oc2cc(C)nc(-n3nc(C)cc3C)n2)cc1 | – | inconclusive: 14.6 µM [activator, partial curve]
O=C(Nc1nccs1)c1ccc[nH]c1=O | inactive: 17% | –
O=C(OCC(=O)N1CCCCCC1)c1cccs1 | – | inconclusive: 16.4 µM [activator, single point]
COc1ccc(CCNC(=O)c2ccc3ccccc3n2)cc1 | – | active: 18.3 µM
COc1ccc(F)cc1S(=O)(=O)Nc1cc2c3c(c1)CCN3C(=O)CC2 | – | inconclusive: 16.4 µM [activator, partial curve, poor fit]
COc1ccc(-c2nnc(NC(=O)c3ccccc3[N+](=O)[O-])s2)c(OC)c1 | – | inconclusive: 29.1 µM [activator, single point]
COc1ccc(-c2nnc(-c3cccnc3)o2)cc1OC | – | inconclusive: 29.1 µM [activator, partial curve, poor fit]
CC(=O)c1cccc(NC(=O)CCOc2ccccc2)c1 | – | inconclusive: 16.4 µM [activator, partial curve, poor fit]
O=C(CSc1cccs1)Nc1cccc2ccccc12 | – | inconclusive: 25.9 µM [activator, single point]
CCOC(=O)C1=CN(Cc2cccc(Br)c2)S(=O)(=O)NC1C (stereo not drawn) | inactive: 0.362% | –
O=C(c1cc2ccccc2oc1=O)N1CCN(c2ncccn2)CC1 | – | active: 18.4 µM
O=C(Nc1cccc(Cl)c1)NC1CC2CCC1C2 (stereo not drawn) | inactive: 9.77% | –

Structure (SMILES) | activity change, positive = activation | Potency
COc1ccc(CCNC(=O)C(=O)Nc2ccc3c(c2)OCCO3)cc1OC | – | inconclusive: 11.6 µM [activator, partial curve, poor fit]
Cc1ccc(Cn2ccc(NC(=O)c3cc(CC(C)C)on3)n2)cc1 | – | inconclusive: 20.6 µM [activator, single point]
COc1ccc(NC(=O)CN(C)C(=O)CCCNC(=O)c2ccc(Cl)cc2)cc1 | – | inconclusive: 23.1 µM [activator, single point]
O=C(CCCOc1ccc(Cl)cc1)N1CCOCC1 | – | inconclusive: 20.6 µM [activator, partial curve, poor fit]
Cc1ccc(C)c(NC(=S)NCCN(C2CCCCC2)C2CCCC2)c1 | inactive: -9.1% | –
CCOC(=O)COc1ccccc1C(=O)c1cnn(-c2ccccc2)c1 | – | inconclusive: 18.3 µM [activator, partial curve, poor fit]
O=C(CSc1nnc(-c2ccc3c(c2)OCCO3)o1)N1CCCC1 | – | inconclusive: 8.2 µM [activator, partial curve, poor fit]
Cc1ccc(C)n1-c1ccc(C(=O)/C=C/N(C)C)cc1 | – | inconclusive: 18.3 µM [activator, single point]
CCOc1ccc(NC(=O)c2ccc(N3CC4CC(C3)c3cccc(=O)n3C4)c(N)c2)cc1 (stereo not drawn) | inactive: -1.34% [at 9.26 µM] | –
CN(CCO)c1c2c(nc3cc(-c4cccc(F)c4)nn13)CCCC2 | – | inconclusive: 6.51 µM [activator, partial curve, poor fit]
c1cnc(SCCOc2ccc3c(c2)CCC3)nc1 | – | active: 4.61 µM
COc1ccc(CCNC(=O)CSc2nc(N)cc(=O)[nH]2)cc1OC | inactive: -4.96% | –
O=C(COc1ccc2c(c1)OCO2)Nc1ccc(Cl)cn1 | – | inconclusive: 23.1 µM [activator, single point]
CCOC(=O)c1cncc(O)c1 | inactive: 0.751% | –
CC1CCN(c2nc3ccc(C(=O)N4CCN(Cc5ccccc5)CC4)cc3s2)CC1 | – | inconclusive: 4.61 µM [activator, partial curve]
COCCn1c(SCc2nc3ccccc3s2)nc2ccccc21 | – | inconclusive: 14.6 µM [activator, partial curve, poor fit]
COc1ccc(/C=N/NC(=O)c2cccc([N+](=O)[O-])c2)c2ccccc12 | inactive: 1.77% | –
C/C(=N\NC(=O)C(c1ccccc1)c1ccccc1)c1ccccn1 | – | inconclusive: 16.4 µM [activator, single point]
COc1ccc(C(=O)Nn2c(SCC(=O)c3ccc(Cl)cc3)nc3ccccc3c2=O)cc1 | – | inconclusive: 0.231 µM [activator, full curve, poor fit]
C=CCNC(=O)c1ccccc1SCc1c(C)noc1C | inactive: 10.9% | –
Cc1ccc(C2=NN3C(C2)c2ccccc2OC32C(=O)Nc3ccccc32)cc1 (stereo not drawn) | – | inconclusive: 6.51 µM [activator, partial curve]
Cc1ccsc1C(=O)NN=C1CCCCCC1 | – | inconclusive: 18.3 µM [activator, single point]
COCCNC(=O)/C(C#N)=C/c1ccccc1Br | – | inconclusive: 18.3 µM [activator, partial curve, poor fit]
